Source: the supplement of paper PMC7125110
Variants at the background level are over-represented here.

B1: glmS ribozyme (parent)
chain: AUAAAAGCGCCAGAACUACAGAAAUGUAGUUGACGAGGAGGAGGUUUAUCGAAUUUUCGGCGGAUGCCUCCAAA

Columns and labels:
Conditions in all cases: with glucosamine-6-phosphate
glucosamine-6-phosphate [1] = variants of: B1; assay: self-cleavage kobs at 40 uM GlcN6P; higher = faster cleavage; RNA array
Procedure, shortened: (§1)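 Glucosamine-6-phosphate (40 μM to 10 mM) in HEPES/KCl/Mg(OAc)2 buffer was flowed over sequenced MiSeq chips, and tiles were imaged over ~14 h. Barcoded ribozyme variants there had been transcribed in situ by E. coli RNA polymerase and were tracked through a hybridised Cy3 probe at 37 °C. One- or two-exponential decay fits to per-tile medians, normalised to baseline and to non-cleaving reference variants, gave kobs. kcat and KM came from weighted Michaelis–Menten fits across concentrations.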

glucosamine-6-phosphate [2] = variants of: B1; assay: self-cleavage kobs at 640 uM GlcN6P; higher = faster cleavage; RNA array
Procedure, shortened: as §1

glucosamine-6-phosphate [3] = variants of: B1; assay: self-cleavage kobs at 160 uM GlcN6P; higher = faster cleavage; RNA array
Procedure, shortened: as §1

glucosamine-6-phosphate [4] = variants of: B1; assay: self-cleavage kobs at 2500 uM GlcN6P; higher = faster cleavage; RNA array
Procedure, shortened: as §1

glucosamine-6-phosphate [5] = variants of: B1; assay: self-cleavage kobs at 10000 uM GlcN6P; higher = faster cleavage; RNA array
Procedure, shortened: as §1

Variant: AUAAAAGCGCCAGAACUACAGAAAUGUAGUUGACCAGGAGGAGGUUUAUCGAAUUUUCGGCGGAUCCCUCCAAA
- self-cleavage kobs at 40 uM GlcN6P (glucosamine-6-phosphate [1]): < 1e-05 s⁻¹
- self-cleavage kobs at 640 uM GlcN6P (glucosamine-6-phosphate [2]): < 1e-05 s⁻¹
- self-cleavage kobs at 160 uM GlcN6P (glucosamine-6-phosphate [3]): < 1e-05 s⁻¹
- self-cleavage kobs at 2500 uM GlcN6P (glucosamine-6-phosphate [4]): < 1e-05 s⁻¹

Variant: AUAAAAGCGCCAGAACUACAGAAAUGUAGUUGACCAGAAGGAGGUUUAUCAAAUUUUCGGCGGAUGCCUCCAAA
- self-cleavage kobs at 40 uM GlcN6P (glucosamine-6-phosphate [1]): < 1e-05 s⁻¹
- self-cleavage kobs at 10000 uM GlcN6P (glucosamine-6-phosphate [5]): < 1e-05 s⁻¹

Variant: AUAAAAGCGCCAGAACUACAGAAAUGUAGUUGACAAGGAGGAGGUUUAUCGAAUUUUCGGCGGAGGCCUCCAAA
- self-cleavage kobs at 40 uM GlcN6P (glucosamine-6-phosphate [1]): < 1e-05 s⁻¹
- self-cleavage kobs at 640 uM GlcN6P (glucosamine-6-phosphate [2]): < 1e-05 s⁻¹
- self-cleavage kobs at 160 uM GlcN6P (glucosamine-6-phosphate [3]): < 1e-05 s⁻¹
- self-cleavage kobs at 2500 uM GlcN6P (glucosamine-6-phosphate [4]): < 1e-05 s⁻¹
- self-cleavage kobs at 10000 uM GlcN6P (glucosamine-6-phosphate [5]): < 1e-05 s⁻¹

Variant: AUAAAAGCGCCAGAACUACAGAAAUGUAGUUGACAAGGAGGAGCUUUAUCGAAUUUUCGGCGGAUGCCUCCAAA
- self-cleavage kobs at 40 uM GlcN6P (glucosamine-6-phosphate [1]): < 1e-05 s⁻¹
- self-cleavage kobs at 640 uM GlcN6P (glucosamine-6-phosphate [2]): < 1e-05 s⁻¹
- self-cleavage kobs at 160 uM GlcN6P (glucosamine-6-phosphate [3]): < 1e-05 s⁻¹
- self-cleavage kobs at 2500 uM GlcN6P (glucosamine-6-phosphate [4]): < 1e-05 s⁻¹
- self-cleavage kobs at 10000 uM GlcN6P (glucosamine-6-phosphate [5]): < 1e-05 s⁻¹

Variant: AUAAAAGCGCCAGAACUACAGAAAUGUAGUUGACAAGGAUGAGGUUUAUCGAGUUUUCGGCGGAUGCCUCCAAA
- self-cleavage kobs at 40 uM GlcN6P (glucosamine-6-phosphate [1]): < 1e-05 s⁻¹
- self-cleavage kobs at 640 uM GlcN6P (glucosamine-6-phosphate [2]): < 1e-05 s⁻¹
- self-cleavage kobs at 2500 uM GlcN6P (glucosamine-6-phosphate [4]): < 1e-05 s⁻¹
- self-cleavage kobs at 10000 uM GlcN6P (glucosamine-6-phosphate [5]): < 1e-05 s⁻¹

Variant: AUAAAAGCGCCAGAACUACAGAAAUGUAGUUGACCAGGAGGAGGUUUAUCGAAUUUUCGGAGGAUGCCUCCAAA
- self-cleavage kobs at 40 uM GlcN6P (glucosamine-6-phosphate [1]): < 1e-05 s⁻¹
- self-cleavage kobs at 640 uM GlcN6P (glucosamine-6-phosphate [2]): < 1e-05 s⁻¹
- self-cleavage kobs at 160 uM GlcN6P (glucosamine-6-phosphate [3]): < 1e-05 s⁻¹
- self-cleavage kobs at 2500 uM GlcN6P (glucosamine-6-phosphate [4]): < 1e-05 s⁻¹
- self-cleavage kobs at 10000 uM GlcN6P (glucosamine-6-phosphate [5]): < 1e-05 s⁻¹

Variant: AUAAAAGCGCCAGAACUACAGAAAUGUAGUUGACCAGGAAGCGGCUCAUCGAAUUUUCGGCGGAUGCCUCCAAA
- self-cleavage kobs at 40 uM GlcN6P (glucosamine-6-phosphate [1]): < 1e-05 s⁻¹
- self-cleavage kobs at 2500 uM GlcN6P (glucosamine-6-phosphate [4]): < 1e-05 s⁻¹

Variant: AUAAAAGCGCCAGAACUACAGAAAUGUAGUUGACCAGGAGGAUGUGUAUUGAAUUUUCGGCGGAUGCCUCAAAA
- self-cleavage kobs at 40 uM GlcN6P (glucosamine-6-phosphate [1]): < 1e-05 s⁻¹

Variant: AUAAAAGCGCCAGAACUACAGAAAUGUAGUUGACAAGGAGGAGGUUUAUCGAAUUUUCGCCGGAUGCCUCCAAA
- self-cleavage kobs at 40 uM GlcN6P (glucosamine-6-phosphate [1]): < 1e-05 s⁻¹
- self-cleavage kobs at 2500 uM GlcN6P (glucosamine-6-phosphate [4]): < 1e-05 s⁻¹

Variant: AUAAAAGCGCCAGAACUACAGAAAUGUAGUUGACCAGGCGGAGGUUUAGCGCAUUUUCGGCGGAUGCCUCCAAA
- self-cleavage kobs at 40 uM GlcN6P (glucosamine-6-phosphate [1]): < 1e-05 s⁻¹

Variant: AUAAAAGCGCCAGAACUACAGAAAUGUAGUUGACCAGGUGGAGGUUUAUCGAAUUUUCGGCGGAUGCCUCCAAA
- self-cleavage kobs at 40 uM GlcN6P (glucosamine-6-phosphate [1]): < 1e-05 s⁻¹
- self-cleavage kobs at 640 uM GlcN6P (glucosamine-6-phosphate [2]): < 1e-05 s⁻¹
- self-cleavage kobs at 160 uM GlcN6P (glucosamine-6-phosphate [3]): < 1e-05 s⁻¹
- self-cleavage kobs at 10000 uM GlcN6P (glucosamine-6-phosphate [5]): < 1e-05 s⁻¹

Variant: AUAAAAGCGCCAGAACUACAGAAAUGUAGUUGACAAGGAGGAGGUUUAUCGAAUUUUCGGCGGAUGCCACCAAA
- self-cleavage kobs at 40 uM GlcN6P (glucosamine-6-phosphate [1]): < 1e-05 s⁻¹
- self-cleavage kobs at 640 uM GlcN6P (glucosamine-6-phosphate [2]): < 1e-05 s⁻¹
- self-cleavage kobs at 160 uM GlcN6P (glucosamine-6-phosphate [3]): < 1e-05 s⁻¹

Variant: AUAAAAGCGCCAGAACUACAGAAAUGUAGUUGACCAGGAGGGGGUUUAACGAAUUUUCGGCGGAUCCCUCCAAA
- self-cleavage kobs at 40 uM GlcN6P (glucosamine-6-phosphate [1]): < 1e-05 s⁻¹
- self-cleavage kobs at 2500 uM GlcN6P (glucosamine-6-phosphate [4]): < 1e-05 s⁻¹
- self-cleavage kobs at 10000 uM GlcN6P (glucosamine-6-phosphate [5]): < 1e-05 s⁻¹

Variant: AUAAAAGCGCCAGAACUACAGAAAUGUAGUUGACCAGCAGCAGGUUUAUCGAAUUUUCGGCGGAUGCCUCCAAA
- self-cleavage kobs at 40 uM GlcN6P (glucosamine-6-phosphate [1]): < 1e-05 s⁻¹

Variant: AUAAAAGCGCCAGAACUACAGAAAUGUAGUUGACCAGGAUGAGGUUUAUCGAAUUUUCGGCGGAUGCCUCCAAA
- self-cleavage kobs at 40 uM GlcN6P (glucosamine-6-phosphate [1]): < 1e-05 s⁻¹
- self-cleavage kobs at 640 uM GlcN6P (glucosamine-6-phosphate [2]): < 1e-05 s⁻¹
- self-cleavage kobs at 2500 uM GlcN6P (glucosamine-6-phosphate [4]): < 1e-05 s⁻¹
- self-cleavage kobs at 10000 uM GlcN6P (glucosamine-6-phosphate [5]): < 1e-05 s⁻¹

Variant: AUAAAAGCGCCAGAACUACAGAAAUGUAGUUGACCAGAAGGAGGUUUAUCGAAUUAUCUGCGGAUGCCUCCAAA
- self-cleavage kobs at 40 uM GlcN6P (glucosamine-6-phosphate [1]): < 1e-05 s⁻¹

Variant: AUAAAAGCGCCAGAACUACAGAAAUGUAGUUGACAAGGAGGAGGUUUAUCGAAUUCUCGGCGGUUGCCUCCAAA
- self-cleavage kobs at 40 uM GlcN6P (glucosamine-6-phosphate [1]): < 1e-05 s⁻¹
- self-cleavage kobs at 640 uM GlcN6P (glucosamine-6-phosphate [2]): < 1e-05 s⁻¹
- self-cleavage kobs at 10000 uM GlcN6P (glucosamine-6-phosphate [5]): < 1e-05 s⁻¹

Variant: AUAAAAGCGCCAGAACUACAGAAAUGUAGUUGACAAGGAGGAGGUUUAGCGAAUUUUCGGCGGAUGCCUCAAAA
- self-cleavage kobs at 40 uM GlcN6P (glucosamine-6-phosphate [1]): < 1e-05 s⁻¹

Variant: AUAAAAGCGCCAGAACUACAGAAAUGUAGUUGACAAGGAGGAGGUUUAUCGAAUUCUCGGCGGAUGCCUCCAAA
- self-cleavage kobs at 40 uM GlcN6P (glucosamine-6-phosphate [1]): < 1e-05 s⁻¹
- self-cleavage kobs at 640 uM GlcN6P (glucosamine-6-phosphate [2]): < 1e-05 s⁻¹
- self-cleavage kobs at 160 uM GlcN6P (glucosamine-6-phosphate [3]): < 1e-05 s⁻¹
- self-cleavage kobs at 10000 uM GlcN6P (glucosamine-6-phosphate [5]): < 1e-05 s⁻¹

Variant: AUAAAAGCGCCAGAACUACAGAAAUGUAGUUGACCAGGAGGGGGUUUAUCGAAUUUUCGGCGGAUGCCUGCAAA
- self-cleavage kobs at 40 uM GlcN6P (glucosamine-6-phosphate [1]): < 1e-05 s⁻¹
- self-cleavage kobs at 2500 uM GlcN6P (glucosamine-6-phosphate [4]): < 1e-05 s⁻¹

Variant: AUAAAAGCGCCAGAACUACAGAAAUGUAGUUGACAAGGAGGAGGUUUAUCGAAUUUUCGGCAGAUGCCUCCAAA
- self-cleavage kobs at 40 uM GlcN6P (glucosamine-6-phosphate [1]): < 1e-05 s⁻¹
- self-cleavage kobs at 640 uM GlcN6P (glucosamine-6-phosphate [2]): < 1e-05 s⁻¹
- self-cleavage kobs at 160 uM GlcN6P (glucosamine-6-phosphate [3]): < 1e-05 s⁻¹
- self-cleavage kobs at 2500 uM GlcN6P (glucosamine-6-phosphate [4]): < 1e-05 s⁻¹
- self-cleavage kobs at 10000 uM GlcN6P (glucosamine-6-phosphate [5]): < 1e-05 s⁻¹

Variant: AUAAAAGCGCCAGAACUACAGAAAUGUAGUUGACAAGGAGGAUGUGUAUCGAAUUUUCGGCGGAUGCCUCCAAA
- self-cleavage kobs at 40 uM GlcN6P (glucosamine-6-phosphate [1]): < 1e-05 s⁻¹
- self-cleavage kobs at 2500 uM GlcN6P (glucosamine-6-phosphate [4]): < 1e-05 s⁻¹
- self-cleavage kobs at 10000 uM GlcN6P (glucosamine-6-phosphate [5]): < 1e-05 s⁻¹

Variant: AUAAAAGCGCCAGAACUACAGAAAUGUAGUUGACCAGGAGGAGGUUUAUCGUAUUUUCGGCGGAUGCCUCCAAA
- self-cleavage kobs at 40 uM GlcN6P (glucosamine-6-phosphate [1]): < 1e-05 s⁻¹
- self-cleavage kobs at 640 uM GlcN6P (glucosamine-6-phosphate [2]): < 1e-05 s⁻¹
- self-cleavage kobs at 160 uM GlcN6P (glucosamine-6-phosphate [3]): < 1e-05 s⁻¹
- self-cleavage kobs at 2500 uM GlcN6P (glucosamine-6-phosphate [4]): < 1e-05 s⁻¹
- self-cleavage kobs at 10000 uM GlcN6P (glucosamine-6-phosphate [5]): < 1e-05 s⁻¹

Variant: AUAAAAGCGCCAGAACUACAGAAAUGUAGUUGACAAGGAGGAGUUUUAUCGAUUUUUCGGCGGAUGCCUCUAAA
- self-cleavage kobs at 40 uM GlcN6P (glucosamine-6-phosphate [1]): < 1e-05 s⁻¹
- self-cleavage kobs at 640 uM GlcN6P (glucosamine-6-phosphate [2]): < 1e-05 s⁻¹
- self-cleavage kobs at 160 uM GlcN6P (glucosamine-6-phosphate [3]): < 1e-05 s⁻¹
- self-cleavage kobs at 10000 uM GlcN6P (glucosamine-6-phosphate [5]): < 1e-05 s⁻¹

Variant: AUAAAAGCGCCAGAACUACAGAAAUGUAGUUGACCAGGAGGAGGUUUAUCGAAUUUUCGGCGGGUGGCUCCAAA
- self-cleavage kobs at 40 uM GlcN6P (glucosamine-6-phosphate [1]): < 1e-05 s⁻¹

Variant: AUAAAAGCGCCAGAACUACAGAAAUGUAGUUGACAAGGAGGAGGUUGGUCGAAUUUUCGCCGGAUGCCUCCAAA
- self-cleavage kobs at 40 uM GlcN6P (glucosamine-6-phosphate [1]): < 1e-05 s⁻¹
- self-cleavage kobs at 2500 uM GlcN6P (glucosamine-6-phosphate [4]): < 1e-05 s⁻¹
